This list was built around the results that the source calls inconclusive (neither active nor inactive); the mix of calls is not that of the screen. Potencies of inconclusive entries are doubtful fits and often do not repeat. The source made the active and inactive calls. Calls follow the shape of the dose curve; as a rule, active = well fitted curve in the direction sought with a large enough effect; inconclusive = small, poorly fitted or top-dose-only effect, or another doubt; inactive = no such curve, though single readings can be large; an effect the other way counts as inactive or inconclusive.
Test: qHTS for Inhibitors of Ubiquitin-specific Protease USP2a Using CHOP2 as the Reporter: K633 Counterscreen (AID 652168); as to activity change, negative = inhibition: % of control where 0% means no effect
Conditions: No-enzyme DiUb K48 IQF substrate fluorescence interference, kinetic; series mostly up to 57.5 µM; activity change, negative = inhibition: at the top concentration
Method in brief: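 Detection-system control: fluorescence of K48-linked DiUb-4IQF substrate (100 nM as added) tracked over time, Ex 525/Em 598, with pinned compounds and no enzyme, in pH 8 Tris buffer containing beta-mercaptoethanol and 0.05% Chaps.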
In the case of `O=S(=O)(Nc1nccs1)c1ccc(Nc2nc(-c3ccc(F)cc3)cs2)cc1`, the Potency is reported as “inactive”. With `Cc1ccc(S(=O)(=O)Nc2ccc(C(=O)Nc3ncc(-c4ccccc4)s3)cc2)cc1` the Potency was inconclusive: 1.93 µM [inhibitor, full curve]. In the case of `COc1ccc(Cl)cc1C(=O)Nc1nc(-c2ccccc2)cs1`, the Potency is reported as inconclusive: 8.63 µM [inhibitor, partial curve]. In the case of `CCCCC1CCC(C(=O)Nc2ccc(S(=O)(=O)Nc3cc(C)on3)cc2)CC1` (configuration not stated), the Potency is reported as inconclusive: 30.6 µM [inhibitor, single point]. For `COc1ccc(C(=O)Nc2nc(-c3ccccc3)cs2)cc1NS(=O)(=O)c1ccc(C)cc1`, the Potency was inconclusive: 2.43 µM [inhibitor, full curve]. For `O=C(Nc1nc(-c2ccccc2)cs1)c1ccccc1-n1cnnn1`, the Potency was inconclusive: 34.3 µM [inhibitor, single point]. In the case of `Cc1ccc(S(=O)(=O)Nc2cnccc2C(=O)Nc2ccncc2)cc1`, the “activity change, negative = inhibition” value is reported as inactive: -1.38%. In the case of `Cc1ccc(S(=O)(=O)Nc2cnccc2C(=O)NCc2ccccc2)cc1`, the “activity change, negative = inhibition” value is reported as inactive: -0.79%. With `Cc1ccc(-c2cc(C(=O)Nc3ccc(C(F)(F)F)cc3)c3ccccc3n2)cc1C` the “activity change, negative = inhibition” value was inactive: -21.8%.

Test: qHTS for Inhibitors of Ubiquitin-specific Protease USP2a Using CHOP2 as the Reporter: Cytotox Assay (AID 652170); also: nearly all actives have a fitted effect of over 70% in size;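 as to activity change, negative = cytotoxicity: HCT116 human colon cancer cells at 600 per well; plate controls were DMSO-treated cells for no effect and wells without cells for full effect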
Conditions: HCT116 viability, CellTiter-Glo luminescence, 72 h; activity change, negative = cytotoxicity: at 46.1 µM (top of the series)
Method in brief: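 Cytotoxicity read as ATP luminescence (CellTiter-Glo) after 72 hr compound treatment at 37 deg C. Cells: HCT116, 600/well in DMEM plus 10% FBS. Normalization between DMSO-treated cells and cell-free wells.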
For `Cc1ccc(S(=O)(=O)Nc2ccccc2CNc2nc(-c3ccccc3)cs2)cc1`, the Potency was inconclusive: 29.6 µM [cytotoxic, single point]. For `O=C(Nc1nc(-c2ccccc2)cs1)c1ccccc1Cl`, the Potency was inconclusive: 16.6 µM [cytotoxic, partial curve]. With `Cc1ccc(C(=O)Nc2ccccc2C(=O)Nc2nc(-c3ccccc3)cs2)cc1` the activity change, negative = cytotoxicity was inconclusive: -80.3%. In the case of `Cc1ccc(S(=O)(=O)Nc2cccc(C(=O)Nc3nc(-c4ccccc4)cs3)c2)cc1`, the Potency is reported as inconclusive: 23.5 µM [cytotoxic, single point]. For `COc1cccc(NS(=O)(=O)c2ccc(C)cc2)c1C(=O)Nc1nc(-c2ccccc2)cs1`, the “activity change, negative = cytotoxicity” value was inactive: 0.429%. For `Cc1ccc(S(=O)(=O)Nc2cnccc2C(=O)Nc2nc(-c3cc4ccccc4o3)cs2)cc1`, the Potency was inconclusive: 33.2 µM [cytotoxic, single point]. With `COc1cc(NS(=O)(=O)c2ccc(C)cc2)cc(C(=O)Nc2nc(-c3ccccc3)cs2)c1` the Potency was inconclusive: 37.2 µM [cytotoxic, single point]. In the case of `Cc1ccc(-c2cc(C(=O)O)c3cccc(C)c3n2)cc1C`, the “activity change, negative = cytotoxicity” value is reported as inactive: -6%. With `Cc1ccc(-c2cc(C(=O)Nc3ccc(C#N)cc3)c3ccccc3n2)cc1C` the Potency was inconclusive: 0.935 µM [rising, full curve, poor fit]. In the case of `Cc1ccc(-c2cc(C(=O)Nc3cccc4ccccc34)c3ccccc3n2)cc1C`, the “activity change, negative = cytotoxicity” value is reported as inactive: -23.2%. With `Cc1ccc(-c2cc(C(=O)Nc3ccc(Cl)cc3)c3ccccc3n2)cc1C` the “activity change, negative = cytotoxicity” value was inactive: 4.83%. For `Cc1ccc(S(=O)(=O)Nc2cc(C(=O)Nc3nc(-c4ccccc4)cs3)ccn2)cc1`, the “activity change, negative = cytotoxicity” value was inactive: 7.9%. In the case of `Clc1nc(CN2CCOCC2)nc2sc3c(c12)CCCC3`, the “activity change, negative = cytotoxicity” value is reported as inactive: 9.39%. For `Cc1ccc(-c2cc(C(=O)Nc3ccc(S(N)(=O)=O)cc3)c3cccc(C)c3n2)cc1C`, the Potency was inconclusive: 37.2 µM [cytotoxic, single point]. With `Cc1ccc(NS(=O)(=O)c2cccc(C(=O)Nc3nc(-c4ccccc4)cs3)c2)cc1` the Potency was inconclusive: 23.5 µM [cytotoxic, single point]. In the case of `CC(=O)Nc1ccc(NC(=O)c2cc(-c3ccc(C)c(C)c3)nc3ccccc23)cc1`, the Potency is reported as inconclusive: 33.2 µM [cytotoxic, single point]. With `COc1ccc(OC)c(C(=O)Nc2nc(-c3ccccc3)cs2)c1` the “activity change, negative = cytotoxicity” value was inactive: 2.09%. For `CCCCC1CCC(C(=O)Nc2ccc(S(=O)(=O)Nc3nccs3)cc2)CC1` (configuration not stated), the “activity change, negative = cytotoxicity” value was inactive: -15.1%. With `Cc1ccc(-c2cc(C(=O)N(C)c3ccccc3)c3ccccc3n2)cc1C` the “activity change, negative = cytotoxicity” value was inactive: -2.35%. For `Cc1ccc(-c2cc(C(=O)Nc3ccc(-n4cccn4)cc3)c3ccccc3n2)cc1C`, the Potency was inconclusive: 13.2 µM [cytotoxic, partial curve]. For `O=C(Nc1nc(-c2ccccc2)cs1)c1ccccc1[N+](=O)[O-]`, the Potency was inconclusive: 0.0132 µM [rising, full curve, poor fit]. With `Cc1ccc(NS(=O)(=O)c2ccccc2C(=O)Nc2nc(-c3ccccc3)cs2)cc1` the Potency was inconclusive: 16.6 µM [cytotoxic, partial curve, poor fit]. In the case of `Cc1ccc(S(=O)(=O)Nc2ccc(C(=O)Nc3ncc(-c4ccccc4)s3)cc2)cc1`, the Potency is reported as inconclusive: 29.6 µM [cytotoxic, single point].

From PubChem BioAssay (NCATS)
Potency is read from the fitted curve at half-maximal effect; tags tell the direction and shape of the fitted curve.
